Source: PMC4336329 (PLoS ONE, 2015)
Among all 310,000 compounds or so, about 2,200 (0.71%) showed an effect of 50% or more. Effects have a minus sign here. The list shows a part of the results.

target: human ether-à-go-go-related gene (hERG) potassium channel (human, UniProt Q12809); experiment: primary screen, population patch clamp on CHO cells stably expressing hERG
Sequence (Q12809 whole entry, looked up): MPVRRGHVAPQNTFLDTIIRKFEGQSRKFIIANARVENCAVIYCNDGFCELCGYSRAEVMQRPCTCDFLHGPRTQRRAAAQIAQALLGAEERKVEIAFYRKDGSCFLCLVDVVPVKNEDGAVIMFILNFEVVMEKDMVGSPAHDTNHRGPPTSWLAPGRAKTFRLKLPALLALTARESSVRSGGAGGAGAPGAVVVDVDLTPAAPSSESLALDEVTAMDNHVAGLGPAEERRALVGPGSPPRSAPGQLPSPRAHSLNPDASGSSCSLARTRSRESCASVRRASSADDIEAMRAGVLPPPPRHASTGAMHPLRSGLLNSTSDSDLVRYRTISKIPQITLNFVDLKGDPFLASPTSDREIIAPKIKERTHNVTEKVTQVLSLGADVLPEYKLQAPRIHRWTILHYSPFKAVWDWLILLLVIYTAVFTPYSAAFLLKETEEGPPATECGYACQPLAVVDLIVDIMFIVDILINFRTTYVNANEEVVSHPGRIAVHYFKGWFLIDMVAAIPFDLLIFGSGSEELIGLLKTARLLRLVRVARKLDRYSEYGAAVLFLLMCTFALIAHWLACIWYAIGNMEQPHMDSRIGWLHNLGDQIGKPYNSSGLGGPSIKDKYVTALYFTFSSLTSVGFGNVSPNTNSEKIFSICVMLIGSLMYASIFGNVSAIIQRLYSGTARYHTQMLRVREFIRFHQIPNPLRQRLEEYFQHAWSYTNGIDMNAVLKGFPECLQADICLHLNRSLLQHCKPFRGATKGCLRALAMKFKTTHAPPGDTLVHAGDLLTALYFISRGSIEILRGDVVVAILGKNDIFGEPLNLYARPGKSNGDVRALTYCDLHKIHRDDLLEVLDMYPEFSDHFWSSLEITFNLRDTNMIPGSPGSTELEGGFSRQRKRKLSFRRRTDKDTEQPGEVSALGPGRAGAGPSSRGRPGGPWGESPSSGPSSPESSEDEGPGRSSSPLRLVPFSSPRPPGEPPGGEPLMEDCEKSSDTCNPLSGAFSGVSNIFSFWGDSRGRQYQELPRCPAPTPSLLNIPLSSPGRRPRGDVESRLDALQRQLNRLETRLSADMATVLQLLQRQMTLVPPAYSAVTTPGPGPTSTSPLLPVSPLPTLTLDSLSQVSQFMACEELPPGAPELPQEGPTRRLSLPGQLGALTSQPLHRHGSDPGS

In order of falling “hERG current change (%, negative = inhibition) at 1uM” value:
1. CC(=O)Nc1ccc(NC(=O)C(C)OC(=O)CCCc2c[nH]c3ccccc23)cc1 (centres unmarked)  23.4%
2. Cc1nn(-c2ccccc2)c(Cl)c1/C=N/N1CCN(c2ccccn2)CC1  19.1%
3. O=C(CSc1nnnn1-c1ccccc1)NCc1cccs1  18.9%
4. O=C(CNc1ccc(Br)cc1)c1ccc(O)cc1  18.9%
5. CC(=O)/C(=N\Nc1ccccc1)Oc1ccc(Br)cc1  16.6%
6. O=C(C[n+]1cc(-c2ccc(F)cc2)n2c1CCC2)Nc1nc(-c2ccccc2)cs1.[Cl-]  16.1%
7. COc1cc(/C=N/Nc2ccc([N+](=O)[O-])cn2)cc(OC)c1O  13.1%
8. O=C(NC1CCCCCC1)C(=O)NC1CC1  13%
9. CCOC(=O)CSC1=C(C#N)C(c2ccccc2)C(C(C)=O)=C(C)N1 (centres unmarked)  12.9%
10. O=C(Nc1ccccc1C(F)(F)F)C1CCN(C(=O)Cc2ccccc2)CC1  12.6%
11. CN1CCc2c(C#N)c(Cl)nc(Cl)c2C1  12.4%
12. CCc1ccc(N2CC(C(=O)Nc3ccc(S(=O)(=O)Nc4ncccn4)cc3)CC2=O)cc1 (centres unmarked)  12.3%
13. Cc1cc(C)cc(NC(=O)Cn2nnc(C(=O)NCCc3ccccc3)c2N)c1  11.6%
14. CCn1cc(C(=O)NCCc2ccc(OC)cc2)c(=O)c2ccc(C)nc21  11.2%
15. Cc1ccc(S(=O)(=O)NCc2ccccc2)cc1C(=O)NC1CCCCC1  11.1%
16. Cl.NCCSSCCN  11%
17. COc1cc(/C=C/C(=O)OCC(=O)c2c[nH]c3ccccc23)ccc1OC(F)F  10.9%
18. CC(C)NC(=O)NC(=O)COC(=O)c1ccc(S(=O)(=O)NCc2ccco2)cc1  10.9%
19. CCOCCNC(=O)c1ccc2c3c(cccc13)CC2  10.9%
20. O=C(CSc1nc2c([nH]c3ccccc32)c(=O)n1-c1ccc(F)cc1)NCc1ccco1  8.46%
21. CC(C)(C)NC(=O)NC(=O)CN1CCN(c2ccc(O)cc2)CC1  7.9%
22. COc1ccc(/C=C/c2nc3ccccc3n2Cc2ccccc2OC)cc1  7.68%
23. O=C(O)c1ccccc1C(=O)N1N=C2/C(=C/c3cccc([N+](=O)[O-])c3)CCCC2C1c1cccc([N+](=O)[O-])c1 (centres unmarked)  7.5%
24. CCC(CC)c1nnc(NC(=O)CCc2ccccc2OC)s1  7.48%
25. COC(=O)c1ccc(NS(=O)(=O)c2cc(C)ccc2OC)cc1  7.08%
26. COc1cc(C(CC(=O)Nc2cccc(C)n2)N2Cc3ccccc3C2=O)cc(OC)c1OC (centres unmarked)  6.6%
27. CCS(=O)(=O)N1CCC(C(=O)N2CCc3ccccc3C2)CC1  6.19%
28. CC(=O)c1c(C)[nH]c(C(=O)OCc2cc(=O)n3cc(Br)ccc3n2)c1C  4.39%
29. Cc1ccsc1/C=C1\CCc2ccccc2C1=O  2.54%
30. Clc1ccccc1Cc1noc(CN2CCN3CCCC3C2)n1 (centres unmarked)  2.3%
31. COc1ccc(O)c(C(C)(C)C)c1  1.86%
32. O=C(CCNS(=O)(=O)c1cccc2nsnc12)NCc1ccccc1  0.712%
33. CC(NC(=O)c1ccc2c(c1)S(=O)(=O)N=C1CCCCCN12)c1ccc(S(N)(=O)=O)cc1 (centres unmarked)  -0.551%
34. Cc1cc2ncn(-c3ncnc4sc5c(c34)CCC(C)C5)c2cc1C (centres unmarked)  -0.88%
35. COCCn1c(SCc2nc(N)nc(Nc3ccccc3C)n2)nc2ccccc2c1=O  -1.05%
36. CCC(CC)NC(=O)COC(=O)CCC(=O)c1cccs1  -2.05%
37. C=CCN1C(=O)CSc2ccc(C(=O)N3CCC(C)CC3)cc21  -3.44%
38. CCCCNC(=O)c1ccc2c(c1)ncn2C1CCCC1  -3.73%
39. C=CCn1c(=O)/c(=C/c2ccc(F)cc2)s/c1=C(\C#N)c1nnc2n1CCCCC2  -6.39%
40. COc1ccc(CCNC(=O)c2c(O)c3cccc4c3n(c2=O)CC4)cc1OC  -6.66%
41. O=C1CC(N2CCOCC2)C(=O)N1c1ccc2c(c1)OCO2 (centres unmarked)  -7.44%
42. CCOC(=O)c1cc(NC(=O)c2ccoc2C)cc(C(=O)OCC)c1  -7.79%
43. Cc1cc(C)n(-c2ccc(NN=C(C#N)C#N)cc2)n1  -10.2%
44. COCCCNC(=O)CCSc1ccc(Cl)cc1  -11.5%
